76 compounds from the supplement of paper PMC10600219 can be followed below.

Structures can show the parent of a compound that is named as a salt. Over roughly 2,800 compounds, “cell viability relative to vehicle” has its median near 1.1; the lowest 2% begin near 0.19. The list shows a part of the results.

The test system of this experiment is NCI-H2228 parental. Description: cell viability relative to vehicle (fraction of vehicle); NCI-H2228 is an ALK-positive lung cancer line and DTP means drug-tolerant persister; higher = less growth inhibition. To be noted: 100 nM; treatment time 6 days. A digest of the protocol: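 Parental NCI-H2228 cells and drug-tolerant persister cells (made with 1000 nM of a targeted drug for 13 days) were seeded in 384-well plates. The next day, the 3114-agent TargetMol anti-cancer compound library was added at 100 nM, with DMSO as vehicle. After 6 days, ATP was read with the CellTiter-Glo 3D Cell Viability Assay. Each value is cell viability relative to vehicle-treated cells.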
As for `Cc1cc(Cn2cnc3c2CC(C(=O)O)N(C(=O)C(c2ccccc2)c2ccccc2)C3)ccc1N(C)C` (stereo unspecified), the cell viability was 1.13.

As to `CCCCS(=O)(=O)N[C@@H](Cc1ccc(OCCCCC2CCNCC2)cc1)C(=O)O` [Tirofiban hydrochloride monohydrate], the cell viability is 1.11.

Consider `O=C(Nc1cc(C(F)(F)F)ccc1N1CCCCC1)c1ccncc1`, for which the cell viability turned out to be 1.08.

For the compound `COc1cc2nc(N3CCN(C(=O)c4ccco4)CC3)nc(N)c2cc1OC` [Prazosin hydrochloride], the cell viability amounted to 0.984.

Turning to `NCCS(=O)(=O)O` [Taurine], the cell viability was determined as 1.21.

Regarding `Cc1ccc(NC(=O)c2ccc(CN3CCN(C)CC3)cc2)cc1Nc1nc(-c2cccnc2)cs1` [Masitinib], the cell viability is 1.06.

Consider `CCO[C@@H]1OC(=O)C[C@@H]1NC(=O)[C@@H]1CCCN1C(=O)[C@@H](NC(=O)c1ccc(N)c(Cl)c1)C(C)(C)C` [Belnacasan], for which the cell viability turned out to be 1.06.

For `Cc1ccc(-c2nn(C(C)(C)CNC(=O)c3ccncc3)c3ncnc(N)c23)cc1`, the cell viability came out at 1.2.

In the case of `O=C(COCC(=O)Nc1ccc(Cl)cc1C(=O)O)Nc1cccc(-c2ccoc2)c1`, the cell viability was 1.03.

Turning to `C#CCN(C)Cc1ccccc1` [Pargyline hydrochloride], the cell viability came to 1.05.

As for `C#CCN(C)Cc1ccccc1` [Pargyline], the cell viability amounted to 1.11.

For `CN(C)c1ccc(C(=O)NCCCCCCC(=O)NO)cc1` [Histone Deacetylase Inhibitor III], the cell viability came out at 1.04.

With `COc1ccc2cc(CCC(C)=O)ccc2c1` [Nabumetone], the cell viability is 1.04.

In the case of `COc1ccc(-c2oc3c(CC=C(C)C)c(O[C@@H]4O[C@H](CO)[C@@H](O)[C@H](O)[C@H]4O)cc(O)c3c(=O)c2O[C@@H]2O[C@@H](C)[C@H](O)[C@@H](O)[C@H]2O)cc1` [Icariin], the cell viability came out at 1.2.

On to `C[C@H]1[C@@H](O)O[C@@H]2O[C@@]3(C)CC[C@H]4[C@H](C)CC[C@@H]1[C@@]24OO3` [Dihydroartemisinin], for which the cell viability is 1.1.

For the compound `CCn1cc(C(=O)O)c(=O)c2ccc(C)nc21` [Nalidixic acid], the cell viability stood at 0.919.

With `CCn1cc(C(=O)O)c(=O)c2ccc(C)nc21` [Nalidixic acid sodium salt], the cell viability was 0.867.

Take `CCN(Cc1ccncc1)C(=O)C(CO)c1ccccc1` (stereo unspecified) [Tropicamide]: the cell viability was found to be 1.03.

`CNC(=O)Nc1cc(Oc2cncc(C)c2)c(-c2ccc(OCC(C)(C)O)nc2)cn1`: the cell viability was 1.02.

As for `Cc1nc(Nc2ccc(F)cc2)nc(N2CCc3ccccc3C2C)c1C` (stereo unspecified) [Revaprazan hydrochloride], the cell viability was found to be 1.15.

In the case of `Cc1ncc([N+](=O)[O-])n1CCO` [Metronidazole], the cell viability came to 1.09.

Take `O=C(Cc1cccc(OC(F)(F)F)c1)Nc1ccc(CCCCc2nnc(NC(=O)Cc3ccccn3)s2)nn1`: the cell viability stood at 1.01.

As to `CCN(CC)CC#CCOC(=O)C(O)(c1ccccc1)C1CCCCC1` (stereo unspecified) [Oxybutynin hydrochloride], the cell viability was found to be 0.998.

In the case of `CC(=O)O/N=C1\C(=O)N(Cc2cc(Cl)ccc2Cl)c2ccc(Cl)cc21`, the cell viability was 1.1.

In the case of `COc1cc2c(cc1OC)[C@@H](Cc1ccc(O)c(Oc3cc4c(cc3OC)CCN(C)[C@@H]4Cc3ccc(O)cc3)c1)N(C)CC2` [Liensinine], the cell viability worked out at 1.18.

Consider `O=S(=O)(CCC(F)=C(F)F)c1ncc(Cl)s1` [Fluensulfone], for which the cell viability turned out to be 1.07.

For `CN1C2CCCC1CC(NC(=O)c1nn(C)c3ccccc13)C2` (stereo unspecified) [Granisetron hydrochloride], the cell viability worked out at 0.962.

With `CC(C)N1CCN(c2ccc(OCC3COC(Cn4cncn4)(c4ccc(Cl)cc4Cl)O3)cc2)CC1` (stereo unspecified) [Terconazole], the cell viability came out at 1.02.

In the case of `CC(C)=CCc1cc(-c2coc3cc(O)ccc3c2=O)ccc1O` [Neobavaisoflavone], the cell viability worked out at 1.17.

With `C=CC[C@@H]1/C=C(\C)C[C@H](C)C[C@H](OC)[C@H]2O[C@@](O)(C(=O)C(=O)N3CCCC[C@H]3C(=O)O[C@H](/C(C)=C/[C@@H]3CC[C@@H](O)[C@H](OC)C3)[C@H](C)[C@@H](O)CC1=O)[C@H](C)C[C@@H]2OC` [Tacrolimus], the cell viability worked out at 1.13.

Turning to `O=C([O-])c1ccccc1O.[Na+]` [Sodium salicylate], the cell viability came out at 1.

For `COc1ccc2[nH]cc(CCNC(C)=O)c2c1` [Melatonine], the cell viability is 1.14.

As for `CC(C)(C)[Si](C)(C)Oc1ccc2oc(=O)c3c(c2c1)CCCN3`, the cell viability worked out at 1.02.

Take `Cc1cc([N+](=O)[O-])ccc1NS(=O)(=O)c1cc(Cl)ccc1Cl`: the cell viability came to 0.882.

Take `CCNC(=O)c1cc2c(-c3cc(C(C)(C)O)ccc3Oc3c(C)cc(F)cc3C)cn(C)c(=O)c2[nH]1`: the cell viability was 0.898.

With `COc1ccc(COc2ccc(Cc3cnc(N)nc3N)cc2OC)cc1`, the cell viability is 1.06.

As for `COc1cc(OC)c(/C=C/S(=O)(=O)Cc2ccc(OC)c(OP(=O)(O)O)c2)c(OC)c1` [Briciclib], the cell viability is 0.238.

Consider `CC1(C)CCC[C@](C)([C@H]2CC[C@]3(C)[C@@H]2[C@H](O)C[C@@H]2[C@@]4(C)CC[C@H](O)C(C)(C)[C@@H]4CC[C@]23C)O1` [Panaxadiol], for which the cell viability stood at 1.09.

`CCN(CC)C(=O)Cc1csc(NS(=O)(=O)c2cccc(Cl)c2C)n1`: the cell viability came out at 1.

As for `COc1ccc(C[C@H](NC(=O)[C@H](C)NC(=O)CN2CCOCC2)C(=O)N[C@@H](Cc2ccccc2)C(=O)C2(C)CO2)cc1` (stereo in doubt), the cell viability is 0.878.

As for `CC(=O)Nc1nc(C)c(-c2ccc(Cl)c(S(=O)(=O)NCCO)c2)s1`, the cell viability was found to be 1.04.

Regarding `O=c1c(-c2ccc(O)cc2)coc2cc(O[C@@H]3O[C@H](CO)[C@@H](O)[C@H](O)[C@H]3O)ccc12` [Daidzin], the cell viability is 1.14.

In the case of `OC[C@H]1O[C@@H](Oc2cc(O)cc(/C=C/c3ccc(O)cc3)c2)[C@H](O)[C@@H](O)[C@@H]1O` [Polydatin], the cell viability worked out at 1.14.

`COc1ccc(C2CNC(=O)C2)cc1OC1CCCC1` (stereo unspecified) [Rolipram]: the cell viability amounted to 1.12.

As to `O=C1OCCN1/N=C/c1ccc([N+](=O)[O-])o1` [Furazolidone], the cell viability worked out at 1.11.

Take `CCOC(=O)[C@H](CCc1ccccc1)N[C@H]1CS[C@H](c2cccs2)CN(CC(=O)O)C1=O` [Temocapril HCl]: the cell viability came to 1.03.

Consider `Cc1ccc(C(C)C)cc1O` [Carvacrol], for which the cell viability was determined as 0.966.

In the case of `O=S(=O)(O)c1cc(O)ccc1O` [Ethamsylate], the cell viability was determined as 1.17.

`COC(=O)C1=CO[C@@H](O[C@@H]2O[C@H](CO)[C@@H](O)[C@H](O)[C@H]2O)[C@H]2[C@@H]1[C@H](O)C[C@]2(C)O` [Shanzhiside methyl ester]: the cell viability came to 1.17.

As to `c1ccc([C@H]2CN3CCSC3=N2)cc1` [Levamisole hydrochloride], the cell viability is 1.21.

For the compound `O=C1C[C@@H](c2ccc(O)cc2)Oc2cc(O)cc(O)c21` [Naringenin], the cell viability came out at 1.01.

`COc1cc2c(Oc3ccc4[nH]c(C)cc4c3F)ncnc2cc1OCCCN1CCCC1` [Cediranib]: the cell viability is 0.882.

In the case of `O=C(O)c1cc(-c2ccccc2)nc2ccccc12` [Cinchophen], the cell viability stood at 0.995.

With `CC(=O)O[C@]1(C(C)=O)CC[C@H]2[C@@H]3C[C@H](C)C4=CC(=O)CC[C@]4(C)[C@H]3CC[C@@]21C` [Medroxyprogesterone Acetate], the cell viability was found to be 1.24.

Turning to `CC(C)(C)c1nc2c3cc[nH]c(=O)c3c3cc(F)ccc3c2[nH]1` [Pyridone 6], the cell viability stood at 0.98.

With `COc1c2c(cc3oc(CO[C@@H]4O[C@H](CO)[C@@H](O)[C@H](O)[C@H]4O)cc(=O)c13)O[C@H](C(C)(C)O)C2` [Cimifugin beta-D-glucopyranoside], the cell viability was 1.09.

As for `CN(C)c1nc(N(C)C)nc(N(C)C)n1` [Altretamine], the cell viability is 1.01.

For the compound `COc1cc2c(cc1-c1c(C)noc1C)ncc1[nH]c(=O)n([C@H](C)c3ccccn3)c12`, the cell viability stood at 0.882.

Consider `COc1nccc(-c2c(-c3ccc(F)cc3)ncn2C2CCNCC2)n1`, for which the cell viability stood at 1.06.

In the case of `CCn1c(=O)c(-c2cc[nH]n2)cc2c(C)nc(N)nc21` [Voxtalisib], the cell viability came out at 0.965.

Take `CCCNCC(O)COc1ccccc1C(=O)CCc1ccccc1` (stereo unspecified) [Propafenone]: the cell viability turned out to be 1.2.

For the compound `NC(=O)C(c1ccccc1)(c1ccccc1)[C@@H]1CCN(CCc2ccc3c(c2)CCO3)C1` [Darifenacin HBr], the cell viability is 1.3.

`O=C1c2ccc(Nc3ccc(F)cc3F)cc2CCc2ccc(OC[C@H](O)CO)cc21` [Skepinone-L]: the cell viability is 1.07.

As to `COc1ccccc1OCC(O)CN1CCN(CC(=O)Nc2c(C)cccc2C)CC1` (stereo unspecified) [Ranolazine], the cell viability was determined as 0.982.

On to `CN(C)C(=S)NN=C(c1ccccn1)c1ccccn1`, for which the cell viability stood at 0.212.

In the case of `CNS(=O)(=O)C[C@H]1CC[C@H](N(C)c2[nH]cnc3nccc2-3)CC1` [Oclacitinib], the cell viability amounted to 0.987.

As for `COc1cc(/C=C(\C#N)C(=O)Nc2nnc(C(F)(F)F)s2)ccc1OCc1ccc(C(F)(F)F)cc1C(F)(F)F`, the cell viability is 0.992.

Take `C[C@@]12C[C@H](c3ccoc3)O[C@@]13C[C@H](OC3=O)[C@H]1[C@H]2C[C@@H]2C[C@H]1C(=O)O2` [Diosbulbin B]: the cell viability is 1.03.

Take `COc1cc([C@@H]2c3cc4c(cc3[C@@H](O[C@@H]3O[C@@H]5CO[C@@H](C)O[C@H]5[C@H](O)[C@H]3O)[C@H]3COC(=O)[C@H]23)OCO4)cc(OC)c1O` [Etoposide]: the cell viability came to 1.07.

`C[C@H]1C[C@@H]2[C@H]([C@@H](O)C[C@@]3(C)[C@H]2CC[C@]3(O)C(=O)CO)[C@@]2(C)C=CC(=O)C=C12` [Methylprednisolone]: the cell viability is 0.867.

For the compound `COc1ccc2[nH]c(-c3cccc(F)c3)cc(=O)c2c1OP(=O)(O)O`, the cell viability came to 0.213.

For the compound `CCn1cc(-c2cccc(C(F)(F)F)c2)c2sc(C(=N)NC3CCS(=O)(=O)CC3)cc2c1=O`, the cell viability is 1.1.

On to `CNCC(O)c1ccc(OC(=O)C(C)(C)C)c(OC(=O)C(C)(C)C)c1` (stereo unspecified) [Dipivefrin hydrochloride], for which the cell viability was determined as 1.05.

For `O=C(NCCO)c1cccc(-c2cc(Nc3ccc(OC(F)(F)F)cc3)ncn2)c1`, the cell viability was 1.02.

Consider `COCC[n+]1c2c(n(Cc3cnccn3)c1C)C(=O)c1ccccc1C2=O`, for which the cell viability came to 0.0796.

In the case of `CO[C@]1(CC[C@@H](C)CO[C@@H]2O[C@H](CO)[C@@H](O)[C@H](O)[C@H]2O)O[C@H]2C[C@H]3[C@@H]4CC=C5C[C@@H](O[C@@H]6O[C@H](CO)[C@@H](O[C@@H]7O[C@@H](C)[C@H](O)[C@@H](O)[C@H]7O)[C@H](O)[C@H]6O[C@@H]6O[C@@H](C)[C@H](O)[C@@H](O)[C@H]6O)CC[C@]5(C)[C@H]4CC[C@]3(C)[C@H]2[C@@H]1C` [Methyl protodioscin], the cell viability was 1.14.
